ChEMBL document CHEMBL1201862, “PubChem BioAssay data set” (2004)
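Each compound was tested at five concentrations against cells in 96-well plates for 48 hours. The concentration for 50% growth inhibition is given as GI50.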 Activity calls are given as the source filed them. No stated cut-off is given here; in the data, active = GI50 up to about 1.1 µM and inactive = higher.

The compounds below were run on NCI-H322M (assay: NCI tumour cell line growth inhibition, 48 h).

SMILES | GI50
CN(C)c1ccc(C(=O)NCCCCCCC(=O)NO)cc1 | active: 0.824 µM
OCC1CCCC(n2cnc3c(S)ncnc32)O1 (centres undefined) | inactive: > 100 µM
c1ccc(C2=Nc3cccc4cccc(c34)N2)cc1 | inactive: > 100 µM
COc1cc(/C=C/c2ccc(/C=C/c3cc(OC)c(OC)c(OC)c3)cc2)cc(OC)c1OC | inactive: 33.6 µM
CC12CCC3C(CCC4=CC(O)CCC43C=O)C1(O)CCC2c1ccc(=O)oc1 (centres undefined) | active: 0.0153 µM
CCN(CC)CCC/N=c1\c2cc(OC)ccc2[nH]c2c([N+](=O)[O-])ccc(NCCCN(CC)CC)c12 | inactive: 1.48 µM
CCOC(=O)C1C(=O)CC1(C)C (centres undefined) | inactive: > 10 µM
C[C@]12CC[C@H](O)CC1=CC[C@@H]1C2CC[C@]2(C)Nc3c(cnn3-c3ccccc3)CC12 (some centres undefined) | inactive: 4.02 µM
CN(C)CC1(Cc2ccccc2)CC/C(=C\c2ccccc2)C1=O (centres undefined) | inactive: 58.6 µM
C/C(=N\NC(N)=S)c1cc(C)c(C)cc1C | inactive: > 100 µM
O=C1Nc2ccccc2/C1=N/N=c1\cccc[nH]1 | inactive: 20.3 µM
COC(=O)C(=O)C(C(=O)C(=O)Nc1ccc(F)cc1)c1nc2ccc([N+](=O)[O-])cc2nc1O (centres undefined) | inactive: > 100 µM
CCc1ccc(COC(=O)C2=C(C)NC(C)=C(C(=O)OCc3ccc(CC)cn3)C2C2=COCCO2)nc1 | inactive: 27.5 µM
O=C(O)C1CCCCC1C(=O)Nc1nc2ccccc2[nH]1 (centres undefined) | inactive: > 100 µM
CC1=CC=C2c3ccccc3C=CN2C(=O)C1 | inactive: > 100 µM
O=C1CCCSC(=O)N1Cc1ccccc1 | inactive: > 100 µM
N#C[C@@H](c1ccccn1)c1ncccc1[N+](=O)[O-] | inactive: > 100 µM
O=C1OC2C(O)COC2(O)C1(O)Cc1c[nH]c2ccccc12 (centres undefined) | inactive: > 100 µM
Oc1ccc(Cl)cc1C1=Nn2c(COc3ccc4c(c3)CCCC4)nnc2SC1 | inactive: 22.9 µM
Cc1ccccc1NC(=O)C1C(=O)N(c2ccccc2C)C(=O)/C1=N\N (centres undefined) | inactive: > 100 µM
COc1ccccc1N/C(=C\C(=O)C(=O)NC12CC3CC(CC(C3)C1)C2)c1ccccc1 | inactive: > 10 µM
CC(=O)OC[C@@H]1[C@H]2CC(=O)O[C@H]2C[C@H]1OC(C)=O | inactive: > 100 µM
CCN1CCCCCCCCCC(=N/O)/C(=N\O)C1 | inactive: > 100 µM

SMILES | GI50
O=C(/C(=C/c1ccc(Cl)cc1)c1ccccc1)c1ccccc1 | inactive: 26.5 µM
COC(=O)/C(=N/NC(C)(C)C)C(C(=O)OC)C(=O)C(=O)Nc1nc2ccc([N+](=O)[O-])cc2s1 (centres undefined) | inactive: > 100 µM
Cc1cc(-c2cccc3ccccc23)c(C#N)c(=S)n1C1OC(CO)C(O)C(O)C1O (centres undefined) | inactive: > 100 µM
COC(=O)/C=C/c1cnc2c(c1)oc(=O)n2CCc1ccccn1 | inactive: > 100 µM
CC1(C)N=C(N)N=C(N)N1c1ccc(CCCCCCc2ccc(S(=O)(=O)F)cc2)cc1 | inactive: 2.16 µM
CNC1=C(C)C(=O)C(O)=C([C@H](C)CCC=C(C)C)C1=O | inactive: 19.4 µM
NC(CC(=O)O)(Cc1ccccc1)C(=O)O (centres undefined) | inactive: > 100 µM
O=c1[nH]n(Cc2ccccc2Cl)c2ccccc12 | inactive: > 100 µM
CN(C)CC[N+]1=Nc2cccc3cccc(c23)N1 | inactive: 54 µM
Cc1c(Cl)c(S(N)(=O)=O)cc2c1N=CNS2(=O)=O | inactive: > 100 µM
Nc1ccc2nc(Nc3ccc(F)cc3)cnc2c1 | inactive: > 100 µM
CCOC(=O)C(C(=O)OCC)=C1NC2(c3ccccc3Nc3ccccc32)C(C#N)S1 (centres undefined) | inactive: 16.3 µM
COc1cccc(CCn2c(N)c(C#N)c3ccc([N+](=O)[O-])cc3c2=O)c1 | inactive: > 46.5 µM
N#CC(NNC(=O)c1ccccc1O)c1c(O)ccc2ccccc12 (centres undefined) | inactive: 4.05 µM
CN(C)CCNC(=O)c1cc(NC(=O)c2cc(NC(=O)CC/C=C3/[C@@H]4CC[C@H]3N=N4)cn2C)cn1C | inactive: > 100 µM
O=C(O)c1ccc(C2COc3ccc(Cl)cc3C2)cc1 (centres undefined) | inactive: > 100 µM
COC1=CC(=O)N(C)C(O)C1(C#N)OC1OC(CO)C(O)C(O)C1O (centres undefined) | inactive: > 100 µM
Clc1cc(N/N=C(\c2ccccc2)c2ccccn2)ncn1 | active: 0.0679 µM
CCOC(=O)CC[C@H](NC(=O)c1nc[nH]c1[N+](=O)[O-])C(=O)OCC | inactive: > 100 µM
CC(=O)OC1C(CCl)OC(N=[N+]=[N-])C(OC(C)=O)C1OC(C)=O (centres undefined) | inactive: > 100 µM
O=C1CC(=O)NC(NN2C(=O)CSC2C(=O)c2ccco2)=N1 (centres undefined) | inactive: > 100 µM
C/C(=C/CO[Si](C)(C)C(C)(C)C)C(=O)N(C)c1ccccc1I | inactive: 16.6 µM
CCCCOc1ccc(/C=C/C2=[N+](CCO)CCO2)cc1 | inactive: > 100 µM

SMILES | GI50
COc1cc(/C=C2\N=C(c3ccccc3)N(/N=C/c3cc4cc(C)ccc4nc3Cl)C2=O)cc(OC)c1OC | inactive: > 100 µM
NC(=O)N/N=C(/Cc1nc2ccc(C(=O)c3ccccc3)cc2nc1O)C(=O)Nc1ccc(C(F)(F)F)cc1[N+](=O)[O-] | inactive: > 100 µM
CCc1nnc(S)n1/N=C/c1ccc(-c2ccc([N+](=O)[O-])cc2)o1 | inactive: > 100 µM
Cc1[nH]n(-c2nc(O)c(-c3ccccc3)c(=O)[nH]2)c(=O)c1CCO | inactive: > 100 µM
OC1C=C2C3CN(Cc4cc5c(cc43)OCO5)[C@H]2C[C@@H]1O (some centres undefined) | inactive: 5.26 µM
COC(=O)CCC(=O)N1Cc2cc(C)ccc2N(C(=O)CCC(=O)OC)Cc2cc(C)ccc21 | inactive: > 100 µM
Cc1ccc(N2C(=O)C(O)=C(C(=O)C(C)(C)C)C2c2ccc([N+](=O)[O-])cc2)cc1 (centres undefined) | inactive: 25 µM
C=C1c2nc3ccccc3n2C=C(c2ccccc2)N1c1ccc(C)cc1 | inactive: > 100 µM
CC(=O)N(C)SCC(NC(=O)C(Cc1ccccc1)NC(=O)OCc1ccccc1)C(=O)NC(Cc1ccccc1)C(=O)NC(Cc1cn(C=O)c2ccccc12)C(=O)NC(CCCCNC(=O)OCc1ccccc1)C(=O)NC(C(=O)NC(CSN(C)C(C)=O)C(=O)NO)C(C)OCc1ccccc1 (centres undefined) | inactive: > 100 µM
CCOC(=O)Cc1cc(OC)c(OC)cc1/C(Cl)=C(\CO)c1ccc(OC)c(OC)c1 | inactive: > 100 µM
Nc1ccccc1C(=O)/C=C/c1c(O)ccc2ccccc12 | inactive: > 100 µM
O=CN1CCN(c2ccc3ccc(O)nc3n2)CC1 | inactive: > 100 µM
CC(=O)/C=c1\[nH]/c(=C\C=C\c2ccccc2)c(=O)n1/C=C1\C(=O)Oc2ccccc2C1=O | inactive: > 100 µM
CCN(CC)CCNc1ccc2ncn3c4ccc(O)cc4c(=O)c1c23 | active: 1.04 µM
O=[N+]([O-])c1ccc(/C=N\N=c2/ccc([N+](=O)[O-])c[nH]2)cc1 | inactive: > 100 µM
CSc1ccc(/C=C2\N=C(c3ccccc3)N(c3nc4ccc(Sc5ccccc5)cc4[nH]3)C2=O)cc1 | inactive: 26.7 µM
O=c1[nH]c(-c2ccccc2)nc2cc(Cl)ccc12 | inactive: > 100 µM
CN(C)CC1(C)CC/C(=C\c2ccc3c(c2)OCO3)C1=O (centres undefined) | inactive: > 100 µM
CC(=O)NNc1nc(C)c(C(/C=C/c2cccc([N+](=O)[O-])c2)=N/NC(=S)NN)s1 | inactive: > 100 µM
C=C1C(=O)O[C@H]2[C@@H]3O[C@@](C)(CC/C=C(\C)CCC[C@@H]2C)[C@H](O)C[C@@H]13 | inactive: 17.5 µM
O=C(O)CCC(=O)Nc1ccc2c(c1)S(=O)(=O)N(CC(=O)O)C2=O | inactive: > 100 µM
COc1cc(/C=N/NC(=O)c2c(Cl)c(Cl)c(Cl)c(Cl)c2-c2nc3cc(C(=O)c4ccccc4)ccc3[nH]2)ccc1O | inactive: > 100 µM
Nc1n[n+](-c2ccccc2)no1 | inactive: > 100 µM

SMILES | GI50
N#CC(C#N)=C1/C(=C/C=C/C=C/C=C/c2ccc(N3CCCCC3)s2)S(=O)(=O)c2ccccc21 | inactive: > 100 µM
CCOC(=O)C(C)c1nc2ccc(C(F)(F)F)cc2[nH]c1=O (centres undefined) | inactive: 67.6 µM
CC(=NNC(=S)Nc1cccc(C)c1)c1cccc(C(C)=NNC(=S)Nc2cccc(C)c2)n1 | inactive: 2.88 µM
COC(=O)c1cc2ccccc2c2nc3ccccc3c(Cl)c12 | inactive: > 100 µM
Cc1ccc(NC(=O)CC/C(CC(=O)c2ccc(Cl)cc2)=N\NC(=O)C(=O)NN)cc1C | inactive: > 100 µM
CC(=O)OCC1OC(n2cc([N+](=O)[O-])c(=O)[nH]c2=O)C(OC(C)=O)C(OC(C)=O)C1OC(C)=O (centres undefined) | inactive: > 100 µM
C/C(=N\Nc1nc2ccccc2s1)c1cccc[n+]1[O-] | inactive: 21.5 µM
CC(C)=CC1C(C(=O)OCc2cc3c(cc2Cl)OCO3)C1(C)C (centres undefined) | inactive: > 100 µM
COC(=O)C1=C(OC(=O)/C(=C/c2c(F)cccc2F)c2ccccc2)C(C(=O)OC)[C@@]2(O)[C@@H](C(=O)OC)[C@H](C)C[C@@H]1[C@@H]2C(=O)OC (some centres undefined) | inactive: > 100 µM
Cc1cc(=O)oc2cc(OCCCOc3ccc4c(C)cc(=O)oc4c3)ccc12 | inactive: > 100 µM
Cc1ccc(S(=O)(=O)NN=C2C(C)CC(C(C)(C)C)CC2C)cc1 (centres undefined) | inactive: 18.1 µM
N/C(=N\O)N/N=C/c1ccc2c(c1)OCO2 | inactive: 9.53 µM
O=S(=O)(O)c1cc(S(=O)(=O)O)c2c(/N=N/c3ccc(S(=O)(=O)O)c4ccccc34)c(O)ccc2c1 | inactive: > 100 µM
CCOC(=O)C1Nc2ccc([N+](=O)[O-])cc2[C@H]2OCC[C@@H]12 (some centres undefined) | inactive: > 100 µM
COc1cccc2c1C(=O)c1c(O)c3c(c(O)c1C2=O)C[C@@](O)(C(=O)CO)CC3OC1CC(NCCCC(OC(C)=O)OC(C)=O)C(O)C(C)O1 (some centres undefined) | active: 0.0035 µM
CCOC(=O)C[C@@]12CCCNC1(C)CCc1ccccc12 (some centres undefined) | inactive: > 100 µM
CC(=O)C1C(=O)C(=O)N(c2ccc([N+](=O)[O-])cc2[N+](=O)[O-])C1=O (centres undefined) | inactive: > 100 µM
N/C(=N\O)N/N=C/c1ccc2c(c1)OCCO2 | inactive: 4.28 µM
CC(=O)Oc1cccc2c1C(=O)c1c(OC(C)=O)cc(C)cc1C2=O | inactive: > 100 µM
CC(=O)O[C@H]1CC[C@@]2(C)[C@H](CC[C@@H]3[C@@H]2CC[C@]2(C)[C@@H](c4ccc(=O)oc4)C[C@H]4O[C@]342)C1 | active: 0.509 µM
